Source: PubChem BioAssay AID743279 (National Center for Advancing Translational Sciences (NCATS), 2014)
Out of some 360,000 compounds screened, about 17,000 (4.7%) were called active. Inconclusive means that the source gave no clear call. Such entries were picked first, then a sample of the others. Rule as the data show it: active = activity change below about -50%; inconclusive = mostly about -30% to -49%; inactive = weaker than that.

Assay: qHTS for Inhibitors of Inflammasome Signaling: IL-1-beta AlphaLISA Primary Screen
Conditions: THP-1 LPS/ATP IL-1B secretion, 16 h; at 57.5 µM, active compounds read low
How it was run: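 THP-1 cells pretreated 1 hr with compounds (up to 57.5 uM final), then stimulated with LPS (250 ng/mL final) plus ATP (1.25 mM final); secreted IL-1B measured by AlphaLISA after 16 hr, decreased signal indicating inhibition.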
% is scaled to controls: 0 for no effect and ±100 for the full control effect.

| SMILES | activity change |
| --- | --- |
| CCOc1cc(CN2CCC(CO)(Cc3cccc(C(F)(F)F)c3)CC2)ccc1OC | active: -74.2% |
| CCOC(=O)c1c(-c2ccc(C)cc2)csc1NC(=O)c1cc2ccccc2oc1=O | inactive: 6.76% |
| CN(Cc1cnccn1)Cc1nc(Cc2cccc(F)c2)no1 | inactive: 63.1% |
| O=C(NCc1cccc(Cl)c1)c1ccc(CS(=O)Cc2ccc(Cl)cc2)o1 (stereo not drawn) | active: -74% |
| CC(C)c1ccc(C(O)P(=O)(OCc2ccccc2)c2ccc(N(C)C)cc2)cc1 (stereo not drawn) | inconclusive: -46.6% |
| CC(C)(c1ccccc1)c1ccc(OCCCNCCO)cc1 | inconclusive: -44.9% |
| CC(Cc1cnccn1)NC(=O)c1cc(COc2ccc(F)cc2F)on1 (stereo not drawn) | inconclusive: -31.2% |
| Cc1ccc(C2=NNC(=Nc3ccc(F)cc3)SC2)cc1 | active: -74.3% |
| O=C1N[C@@H](Cc2c[nH]c3ccccc23)COC(=O)[C@@H](Cc2ccc(F)cc2)C/C=C\C[C@H]1CC(=O)N(CCO)Cc1ccccc1 | inconclusive: -47.2% |
| COCCN=c1scc(-c2cccs2)n1/N=C(\C)c1ccco1 | inconclusive: -30.2% |
| CCCCC[C@H]1CN(C2CCCCC2)C(=O)[C@@H]1CC(=O)NCc1ccccc1 | inconclusive: -42.6% |
| COc1ccc(-c2cc(-c3c(O)c(OC)c4occc4c3OC)[nH]n2)cc1 | inconclusive: -31.2% |
| CNc1ncnc2c1ncn2-c1ccccc1 | inactive: -6.6% |
| CC(C)N(C(=O)[C@H]1C[C@H](CC(=O)NCC23CC4CC(CC(C4)C2)C3)C(=O)N2CCc3c([nH]c4ccc(Cl)cc34)[C@]12C)C(C)C | active: -75.3% |
| CC(C)(C)c1ccc(C(=O)Nc2ccccc2NC(=O)c2ccco2)cc1 | active: -54.4% |
| O=[N+]([O-])c1cccc(/C=C/c2ccncc2)c1 | inconclusive: -39.6% |
| O=C(NNC(=O)c1cc(OCC(F)(F)F)ccc1OCC(F)(F)F)c1cccc(C(F)(F)F)c1 | inconclusive: -40.2% |
| CC(C)CC(=O)NC(c1ccccc1)c1c(O)ccc2ccccc12 (stereo not drawn) | active: -80.2% |
| Cc1ccccc1-c1cccc(CN2CCN(C)C(CCO)C2)c1 (stereo not drawn) | active: -54.3% |
| CC(C)CC(=O)NC(=S)Nc1sc2c(c1C(N)=O)CCC2 | inactive: -22.3% |
| COc1cccc(C2=CC(=O)C[C@H](c3ccc(Cl)cc3)C2)c1OC | inconclusive: -34.5% |

| SMILES | activity change |
| --- | --- |
| O=c1c(-c2ccnn2-c2cccc(Cl)c2)cnc2n1CCS2 | inactive: 10.1% |
| C[C@]12c3[nH]c4ccc(Cl)cc4c3CCN1C(=O)[C@@H](CC(=O)NCc1cccc(C(F)(F)F)c1)C[C@@H]2C(=O)N1CCCCC1 | inconclusive: -42.3% |
| COc1cc(-c2nc(-c3ccccn3)no2)cc(OC)c1OC | inconclusive: -45.7% |
| Cc1c(C(=O)Nc2ccc(Nc3ccccc3)cc2)cccc1[N+](=O)[O-] | inconclusive: -35.2% |
| CCN(CC)C(=O)[C@H]1C[C@H](CC(=O)NCCCN(C)C)C(=O)N2CCc3c([nH]c4ccc(Cl)cc34)[C@]12C | active: -51.5% |
| O=C(Nc1ncccn1)c1cc(-c2cccc(Br)c2)nc2ccccc12 | inconclusive: -43.8% |
| O=C(Cc1ccc2c(c1)OCCO2)Nc1cc(C(F)(F)F)ccc1N1CCOCC1 | inconclusive: -49.4% |
| COc1c2c(cc3ccc(=O)oc13)CCO2 | inconclusive: -37.9% |
| COc1ccc(S(=O)(=O)N2CCCC(C(=O)Nc3ccc4c(c3)OCCO4)C2)cc1 (stereo not drawn) | inconclusive: -43.9% |
| Cc1nc2c(ccc3c([N+](=O)[O-])cccc32)c(C)c1C | inactive: 1.07% |
| COc1ccc(Cl)cc1C(=O)NNC(=S)NC1CCCCC1 | inactive: 33.3% |
| O=C(N/N=C/c1coc2ccccc2c1=O)c1cn(-c2ccccc2)nc1-c1ccc(F)cc1 | inactive: -2.21% |
| CN1CCN(C(=S)c2ccc(OCC(=O)Nc3cccc(C(F)(F)F)c3)cc2)CC1 | inconclusive: -48.2% |
| CC(C)CNC(=O)Nc1ccc(F)c(Cl)c1 | inconclusive: -42.4% |
| O=C(Nc1cc(Cl)cc(Cl)c1)C(c1ccccc1)N1CCCCC1 (stereo not drawn) | inconclusive: -31.2% |
| Clc1ccc(CN2CCN(/N=C/c3cccnc3)CC2)cc1 | inactive: 11.9% |
| Cc1cc(C)cc(NC(=O)CSc2nc3nc(C)cc(C)n3n2)c1 | inactive: -18.5% |
| COc1cccc(-c2oc3c(c2-c2ccc(OC)nc2)C(O)CCC3)c1 (stereo not drawn) | inactive: -11.1% |
| CCOc1nc(NCCN2CCOCC2)nc(Nc2ccc(C)cc2)n1 | inactive: -27.7% |
| CN(C)/C=C1/N=C(c2ccccc2)OC1=O | inconclusive: -31.7% |
| OC(c1ccccc1)(c1ccccc1)C1CCN(CCCOc2ccccc2Cl)CC1 | inconclusive: -37.5% |

| SMILES | activity change |
| --- | --- |
| CCOC(=O)C1(CCOc2ccccc2)CCN(Cc2cccn2-c2cccnc2)CC1 | inconclusive: -43.9% |
| Cc1ccc(S(=O)(=O)N2CCN(C(=O)CCOc3cc(C)ccc3C)CC2)cc1 | inconclusive: -30.6% |
| COc1ccc(NS(=O)(=O)c2ccc(N3CCCC3)c(NC(=S)Nc3cccc(C)c3C)c2)cc1 | inconclusive: -46.8% |
| C/C=C/c1ccc(OCC(O)CNCCc2ccc(OC)cc2)c(OC)c1 (stereo not drawn) | inconclusive: -44.1% |
| C=C1CCC[C@]2(C)C[C@H]3OC(=O)C(CN4CCOCC4)[C@H]3C[C@@H]12 (stereo partly drawn) | active: -74.3% |
| Cc1ccc(CNc2ccc(N3CCOCC3)cc2)s1 | inconclusive: -37.2% |
| Cc1[nH]nc(N)c1-c1ccc(Cl)cc1 | inconclusive: -45.9% |
| CC1Cc2ccccc2N1S(=O)(=O)c1cccc(C(=O)N2CCCCC2)c1 (stereo not drawn) | inconclusive: -49.6% |
| CCN1C(=O)[C@H]2[C@@H](c3ccc(-c4cccc(Cl)c4)c(OC)c3)N3CCCC[C@@]3(C(=O)OC)[C@H]2C1=O | active: -61.7% |
| O=[N+]([O-])c1ccc(-c2nc(Nc3cccc(O)c3)c3ccccc3n2)cc1 | active: -69.9% |
| Cc1ccccc1CSCc1nc2ccccc2[nH]1 | inconclusive: -38% |
| COc1ccccc1CCn1c(N)c(C#N)c2nc3ccccc3nc21 | inconclusive: -36.2% |
| C=CCOC(=O)C(C#N)c1nc2ccccc2nc1N1CCN(Cc2ccc3c(c2)OCO3)CC1 (stereo not drawn) | active: -52% |
| COc1ccc2[nH]c(=O)c(CN(C(=O)C3CCCO3)c3ccc(C)c(C)c3)cc2c1 (stereo not drawn) | inconclusive: -32.4% |
| COc1ccc(-n2nc(C(=O)NCC(=O)N3CCN(Cc4ccccc4)CC3)c3ccccc3c2=O)cc1 | inconclusive: -37.2% |
| COc1cc(C2C(C#N)=C(N)OC3=C2C(=O)CC(C)(C)C3)ccc1OCCN1CCOCC1 (stereo not drawn) | inactive: 18.9% |
| CCN1C(=O)C2C(c3ccccc3F)NC(Cc3ccc(O)cc3)(C(=O)OC)C2C1=O (stereo not drawn) | inactive: 26.6% |
| Cc1ccc(CN=c2c([N+](=O)[O-])nn(-c3cccc(Cl)c3)n2O)cc1 | inconclusive: -48.4% |
| COc1ccc(/C=C2\N=C(SC)N(c3ccccc3OC)C2=O)cc1 | inconclusive: -37.2% |
| NS(=O)(=O)c1ccc(NC(=S)NCc2cccc(Cl)c2)cc1 | inconclusive: -35.9% |
| COc1cc(CCCN[C@H](CN)Cc2ccccc2)cc(OC)c1OC | inconclusive: -30.7% |

| SMILES | activity change |
| --- | --- |
| O=C(NN=Cc1ccccc1OC(F)F)c1ccc(NS(=O)(=O)c2cccs2)cc1 | inactive: 0% |
| CCCCN(C)CCN1C(=O)C2C(C(=O)Nc3ccc(OC)cc3)C3C=CC2(O3)C1C(=O)NC1CCCCC1 (stereo not drawn) | inconclusive: -40.5% |
| Brc1ccc2oc(-c3ccn[nH]3)cc2c1 | inconclusive: -30.3% |
| Cc1ccccc1COc1ccc(/C=N/NC(=O)c2nnn(-c3nonc3N)c2CN2CCC(C)CC2)cc1 | inconclusive: -47.3% |
| Cc1cccc(CS(=O)(=O)c2nnc([C@H](Cc3ccccc3)NC(=O)OC(C)(C)C)o2)c1 | inconclusive: -30.2% |
| COc1cc(/C=C/C(=O)CC(=O)/C=C/c2ccc(O)c(OC)c2)ccc1O | active: -69.5% |
| CSc1c(C#N)c(N)nc2sc(C(=O)c3ccccc3)c(N)c12 | active: -72.8% |
| Cc1ccccc1C1=C/C(=C(\SS/C(C(=O)c2ccc(OCC(=O)O)c(Cl)c2Cl)=C2\C=C(c3ccccc3C)SS2)C(=O)c2ccc(OCC(=O)O)c(Cl)c2Cl)SS1 | inconclusive: -48% |
| COc1cc(/C=C2\SC(N)=NC2=O)ccc1O | active: -83% |
| O=[N+]([O-])c1ccccc1CN1CCN(S(=O)(=O)c2ccccc2)CC1 | inconclusive: -42.3% |
| O=C(NCc1ccccc1)C(C1CC1)n1c(CSCCOc2ccccc2)nc2ccccc21 (stereo not drawn) | inactive: -15.8% |
| COC(=O)N/N=C\c1ccccc1OC/C=C/c1ccccc1 | active: -64.6% |
| Cc1cc(C)c(OCCCCN2CCNCC2)c(C)c1 | inconclusive: -39.3% |
| Cc1ccc(C(=O)N/C(=C/c2ccc(-c3cc(C(F)(F)F)ccc3Cl)o2)C(=O)NCc2cccnc2)cc1 | inconclusive: -49.6% |
| CCNc1ccc(Br)cc(C(=O)/C=C/c2ccc(Cl)cc2)c1=O | active: -100% |
| COC(=O)c1[nH]c2cc(OC)ccc2c1NC(=O)CN1CCN(c2cccc(C)c2)C(C)C1 (stereo not drawn) | inconclusive: -46.4% |
| Cn1c(CNC(=O)c2ccco2)nnc1SCC(=O)Nc1c(F)cc(F)cc1Br | inactive: -11.1% |
| CC(=O)Nc1cccc(-c2ccnc3c2CC(C(=O)Nc2ccccc2)O3)c1 (stereo not drawn) | inconclusive: -38.6% |
| C=C(C)CCC(C)N1CCC(n2nccc2NC(=O)CCCc2ccccc2)CC1 (stereo not drawn) | inactive: -7.41% |
| CC1=CCCC(C)(C)C1/C=C/C(C)=N/NC(=O)c1ccncc1 (stereo not drawn) | inactive: 82.1% |
